Test results reported in the supplement of paper PMC10126150.
Sequences with one replicate were seen in a single cluster, so their values are uncertain.

Tested on: ATP
Assay: switch fluorescence ratio, 500 uM ATP over buffer (Cy3 cluster intensity, sum of 5 cycles each) (fold (ratio)); higher = stronger signal-on switching upon ATP binding; sequences stand for … in TCGTCGGCAGCGTCAGATGTGTATAAGAGACAGTTTTTTTTTTTTTTTTTTTTTTTTT…TC
Conditions: aptamer strand: ATP DNA aptamer (quencher-CACCTGGGGGAGTATTGCGGAGGAAGG + anchor), 100 nM annealed; ATP concentration: 500 uM; one replicate
Procedure, shortened: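 For every switch-domain sequence, the fluorescence ratio is the mean of per-cluster values, each being summed target-cycle Cy3 intensity over summed buffer-cycle Cy3 intensity. Clusters outside 100-1000 RFU were excluded. On a modified Illumina MiSeq flow-cell, the Cy3-labelled switching-strand clusters were annealed to 100 nM quencher-labelled ATP aptamer, imaged in selection buffer and then after 15 min with 500 uM ATP at 22 °C. Five such cycles were run, with NaOH stripping and re-annealing between them.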
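Further: ATP exposure 15 min at 22 °C before imaging.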

Sequence | switch fluorescence ratio
ATAAGTAGAG | 1.01
TTTGCACGCG | 1.03
GGCATACTAT | 1.05
GACCCCACGA | 1.41
AGATGCAGGC | 1.02
GGCAAATTCA | 1.06
TCCAAGGCGT | 1.11
CTAGGTAACA | 0.964
CCTATTACGT | 1.04
AGAATCTTAC | 1.34
ATGAAGTGTA | 0.967
ATTCGGGGA | 0.955
CACTCTACTC | 1.36
CTCGAATGC | 1.34
CATCAACACG | 1
TGGCGTACGA | 0.977
CATACCGGAC | 1.93
TATGTCCCGG | 1.05
TCCATGGGCC | 0.98
CTAGTATGGC | 0.914
CGAGAAGTGG | 0.976
GTAGTGAATC | 1.03
TTGAACGGTA | 1.11

Sequence | switch fluorescence ratio
AGAGACGCAA | 5.56
TAACATATT | 0.988
CAATTCTCGT | 0.969
CTTTTTTGGC | 1.08
CTGGACTACA | 1.05
AGTAATGGAT | 0.972
AGAGGATTTC | 0.993
CGGGGTGGAA | 1
GAGGCGCCTG | 0.931
GCCCTTCTAC | 1.02
TGAACTCGAG | 1.06
TGGTATATCC | 1.03
AGAATATAGT | 0.983
GAGGAAGGGC | 0.992
AAATTTTAGC | 1.01
ACTATCCGAG | 1.11
AATCGCACG | 1.05
AACCTACAGA | 1.2
CGTGCCCTAC | 1.13
CAGATAGGT | 0.984
CGGCTGACAA | 1.1
GTGGCGCTGC | 0.994
TCTCCCGTAT | 1.14

Sequence | switch fluorescence ratio
AGGATTGACC | 0.998
CGGATGGAAG | 0.985
ACACTGTTG | 0.976
ACACGTTATC | 1.21
TACGAGTGTC | 1.01
CGGCGTTAAA | 0.984
CGTTTGATCC | 0.973
TTCGCTATGC | 2.63
CGATGACCAC | 1.05
GCCTGAGCAA | 1.24
CAAGGATGC | 0.995
AAAGAGCCTG | 1.15
AGTTCGCGTA | 1.05
GCATGTATTT | 0.952
GCACCTTTGG | 1.02
TCTTGTAAGC | 1.03
ACCATATTAC | 1.19
TAAAGTGCAA | 1.05
CCATGTTACC | 1.05
GATAATGGGA | 1.02
GGAGTGGGGC | 0.975
AGGCTCGCCA | 0.972
GGTGTGCGAG | 0.986

Sequence | switch fluorescence ratio
ATGGTCGGTA | 0.923
CGTTTTCGCG | 1
CTGTCACAAA | 1.02
ATTCAAAGCT | 1.09
TAGGAACAAA | 0.981
TGTGCTTTTT | 0.982
GAACAATCGA | 1
TCTCCCCGGG | 3.33
AAAAATCTAG | 0.995
ACGTTAGTT | 0.94
AGGCACAGGC | 1.08
TCCGACGGGT | 1.08
GGGTGTTATC | 1
GAGGGTGCTA | 0.996
TGTGTAAAAC | 1.05
GCGCTTAGGG | 0.962
CGGACAGTTG | 1.01
GGTAGTCTTA | 0.948
CTGCAATAGG | 4.44
AGATAAAGGA | 0.972
AATTCATATG | 0.942
CTGTAAGATT | 0.96
GCTGCGACAC | 2.2

Sequence | switch fluorescence ratio
TTAGCGGTCT | 1.05
TACGCCTAGG | 1.09
CCAAATTATT | 0.931
GTGTCTTGTG | 1.02
CAGTCATCCC | 1.04
TCTCAATGAA | 1.08
TTACATTTAC | 1.25
ATCGGTGGCT | 1
TCGCCAGGCA | 1.01
GGCGGTTCGT | 0.982
TAGTCTTTCC | 1.12
TGCATATCGT | 1
CTTATACTTC | 1.04
GTAATATAGA | 1.02
TGAAGGTACG | 0.946
TATGAGCTTT | 1.03
ACTTGGGGAT | 1.01
CTCGTTTTA | 0.966
AGTCGAGCGG | 0.992
AGGGATTCCA | 1.01
ATAGTGTAC | 1.08
CTATCTGAGG | 1.02
AGCATGAGGC | 0.964

Sequence | switch fluorescence ratio
GCCTGTCATG | 0.952
CCGTGACTCT | 1.09
ACTTCGGGTG | 1.16
GCTTTCATAG | 0.993
ACGCTCTTTG | 1.01
TATAGTCTAT | 1.06
GATGCATTTA | 1.03
TTGTATTGG | 0.966
AACCAGGTTC | 1.04
TAATACGGT | 0.967
CGTTGATGAT | 0.991
AGGGAGTTAC | 0.996
CATGCTTTTT | 0.967
GGCCAGACGG | 0.995
GCTGCGATTT | 0.997
GCGAGTGCAA | 1.19
AGAATTAATG | 0.981
AGTTCTTCCA | 1.01
CAACGATTG | 0.991
CACATGGGAC | 0.999
ATAGGATGTC | 0.884
GTTGCCTCTG | 1.06
GCCATCACCT | 1.11

Sequence | switch fluorescence ratio
CAGTACTGCC | 1.08
GACAGGGGAT | 1.06
CCTGTGCGG | 1.43
AAAGTCGCGA | 1.02
GCTTGGCCGA | 1.01
GGGCACAGGA | 0.935
TGGTGTGAGC | 1.01
CGGAGTGTGG | 0.965
ATCAGGAGGC | 1.03
GGTCACTGAA | 0.957
AGAACGCCTG | 1.03
TCTGGGCGTA | 1.01
CCAAGTTATG | 1.04
ACTTCTAGAT | 1.01
TGCATAGAGG | 1
TAGCAAGT | 1.1
TTCCGTATGC | 1.32
CACGGCCGGC | 1.01
ATACGATGGT | 1.04
